Among all 310,000 compounds or so, about 2,200 (0.71%) showed an effect of 50% or more. Effects have a minus sign here. This is one part of the list.

human ether-à-go-go-related gene (hERG) potassium channel, sequence (Q12809 whole entry, looked up): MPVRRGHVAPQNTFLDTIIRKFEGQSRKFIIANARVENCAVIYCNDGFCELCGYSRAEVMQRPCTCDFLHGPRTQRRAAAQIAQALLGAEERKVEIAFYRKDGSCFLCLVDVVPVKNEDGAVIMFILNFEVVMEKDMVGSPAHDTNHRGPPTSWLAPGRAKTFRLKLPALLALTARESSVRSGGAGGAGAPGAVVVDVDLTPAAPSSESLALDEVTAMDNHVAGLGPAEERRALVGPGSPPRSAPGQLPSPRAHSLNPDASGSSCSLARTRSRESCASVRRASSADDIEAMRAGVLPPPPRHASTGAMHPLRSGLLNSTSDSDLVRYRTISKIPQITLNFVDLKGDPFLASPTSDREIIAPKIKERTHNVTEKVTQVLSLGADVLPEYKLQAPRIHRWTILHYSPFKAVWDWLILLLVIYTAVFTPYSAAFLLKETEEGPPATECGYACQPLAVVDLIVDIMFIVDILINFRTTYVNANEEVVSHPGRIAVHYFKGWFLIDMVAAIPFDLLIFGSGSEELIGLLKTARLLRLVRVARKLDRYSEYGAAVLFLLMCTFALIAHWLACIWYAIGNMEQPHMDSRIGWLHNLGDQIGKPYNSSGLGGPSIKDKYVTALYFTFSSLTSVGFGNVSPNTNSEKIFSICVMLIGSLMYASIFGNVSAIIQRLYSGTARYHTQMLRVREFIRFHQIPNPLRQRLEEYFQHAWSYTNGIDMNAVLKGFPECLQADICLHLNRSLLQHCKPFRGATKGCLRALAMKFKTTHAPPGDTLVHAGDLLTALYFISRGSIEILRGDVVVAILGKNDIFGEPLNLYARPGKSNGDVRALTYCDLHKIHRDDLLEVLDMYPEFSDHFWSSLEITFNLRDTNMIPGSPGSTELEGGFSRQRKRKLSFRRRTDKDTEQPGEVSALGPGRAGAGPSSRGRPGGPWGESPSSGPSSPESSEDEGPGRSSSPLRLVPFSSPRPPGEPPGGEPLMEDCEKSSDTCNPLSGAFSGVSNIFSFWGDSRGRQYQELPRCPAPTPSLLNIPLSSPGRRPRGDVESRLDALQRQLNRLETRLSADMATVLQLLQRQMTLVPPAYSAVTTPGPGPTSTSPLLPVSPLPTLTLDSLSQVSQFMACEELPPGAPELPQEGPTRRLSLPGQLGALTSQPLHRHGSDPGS

The assay has as its target human ether-à-go-go-related gene (hERG) potassium channel (human, UniProt Q12809). The assay is described as follows: primary screen, population patch clamp on CHO cells stably expressing hERG.
On to `Cc1ccc(S(=O)(=O)/C(C#N)=C/c2c(N3CC(C)OC(C)C3)nc3c(C)cccn3c2=O)cc1` (stereo not drawn), for which the “hERG current change (%, negative = inhibition) at 1uM” value is given as 6.49%.
Turning to `CCOC(=O)c1ccccc1NC(=O)Cn1cnc2c(cnn2-c2ccc(OC)cc2)c1=O`, the “hERG current change (%, negative = inhibition) at 1uM” value was determined as 0.769%.
Turning to `CCC(C)[C@H](NC(=O)C1CC(=O)N(c2ccc3c(c2)OCCO3)C1)C(=O)N1CCCCC1` (stereo partly drawn), the “hERG current change (%, negative = inhibition) at 1uM” value was 12.2%.
In the case of `CCCCC1=CC2=CC(=O)C(C)(OC(=O)CC)C(=O)C2=CN1CCc1ccc(Br)cc1` (stereo not drawn) it was -28.7%; in that of `COc1ccc(C(=O)NCc2nnc(SCC(=O)N3CCc4ccccc43)n2Cc2ccccc2)cc1`, 6.84%.
Regarding `Cc1ccc(C2=Nc3ccccc3N=C(c3ccc([N+](=O)[O-])cc3)C2)c(O)c1`, the “hERG current change (%, negative = inhibition) at 1uM” value is on record as 6.89%.
In the case of `CSc1nc2ccc(NC(=O)c3c(F)cccc3F)cc2s1` it was 8.93%.
As for `Cc1ccc(/C=C2\SC(=S)N(CCC(=O)NCCCN3CCOCC3)C2=O)cc1`, the “hERG current change (%, negative = inhibition) at 1uM” value came to 16%.
In the case of `CCOC(=O)c1ccc(NC(=O)CSc2nnc(C3CC3)n2C)cc1` it was 7.49%; in that of `Cl.Fc1ccc(Nc2nc(N/N=C/c3ccco3)nc(N3CCCCC3)n2)cc1`, 6.3%.
Turning to `Cc1cc(C(=O)N/N=C\c2cc(C(C)(C)C)ccc2O)n[nH]1`, the “hERG current change (%, negative = inhibition) at 1uM” value is given as -11.8%.
For `Cc1ccc(S(=O)(=O)NCc2ccccc2)cc1C(=O)NCc1ccccn1` the value was 10.4%.
With `CSc1ccccc1OCc1cc(C(=O)NCCc2ccco2)no1`, the “hERG current change (%, negative = inhibition) at 1uM” value worked out at 11.6%.
For `Cc1ccc(C2C3=C(Nc4[nH]n(-c5ccccc5)c(=O)c42)c2ccccc2C3=O)cc1` (stereo not drawn) the value was 4.71%.
For `CC(C)Cn1cc(Cl)c(=O)n(CC(C)C)c1=O` the value was 22%.
In the case of `COc1ccc(N2CCN(CCCNC(=O)C3CCCN(S(=O)(=O)c4cnc[nH]4)C3)CC2)cc1` (stereo not drawn) it was 2.44%; in that of `Cc1ccc(N(CC(=O)NCc2cccnc2)S(C)(=O)=O)cc1C`, 12.4%.
Regarding `Cc1ccc(-c2nnc(NC(=O)c3ccco3)s2)cc1`, the “hERG current change (%, negative = inhibition) at 1uM” value came to 5.09%.
For `COc1ccc(OC)c(C2C(C(=O)c3ccccc3)=C(C)Nc3nc4ccccc4n32)c1` (stereo not drawn) the value was 6.19%; for `CCN(CC)S(=O)(=O)c1cc(NS(=O)(=O)c2cc(Cl)ccc2Cl)ccc1C`, 0.0218%; for `O=C(COc1ccccc1Cl)NCCc1ccc2c(c1)OCCO2`, 6.03%.
As for `CCCNC(C)C(=O)Nc1ccccc1C.Cl` (stereo not drawn), the “hERG current change (%, negative = inhibition) at 1uM” value is 15.4%.
For `COCc1ccc(C(=O)N(C)CC2CCCN(CCc3ccc(OC)cc3)C2)o1` (stereo not drawn) the value was -38.5%; for `COc1ccc2c(c1)c(C(=O)CN1CCC(C(N)=O)CC1)c(C)n2C`, 12.1%; for `CCNc1c(N)c(=O)oc2ccccc12`, 9.55%.
`CC(c1nnc(SCC(=O)c2c(N)n(C3CC3)c(=O)[nH]c2=O)n1-c1ccc(F)cc1)N(C)C` (stereo not drawn): the “hERG current change (%, negative = inhibition) at 1uM” value was determined as 7.83%.
Turning to `CN(C(=O)c1ccc(NC(=O)Cc2cccc(NC(=O)C3CCCN(C(=O)C4CCCCC4)C3)c2)cc1)C1CCCC1` (stereo not drawn), the “hERG current change (%, negative = inhibition) at 1uM” value was 11.5%.
For `Cc1ccc(Oc2cc(-n3nc(C)cc3C)ncn2)cc1` the value was -7.39%.
For `COc1ccccc1CNC(=O)c1cc(C(C)C)nc2ccccc12`, the “hERG current change (%, negative = inhibition) at 1uM” value stood at 6.74%.
In the case of `Cc1ccc([N+](=O)[O-])cc1S(=O)(=O)NCC1COc2ccccc2O1` (stereo not drawn), the “hERG current change (%, negative = inhibition) at 1uM” value amounted to 15.9%.
For `CCCN1C(=O)S/C(=C/c2ccc(N3CCOCC3)o2)C1=O` the value was 11.3%; for `COc1ccc(C(CNC(=O)c2ccccc2C)N2CCCC2)cc1` (stereo not drawn), -8.13%.
For `CN(Cc1nc2ccccc2[nH]1)C(=O)C1CCC(=O)N(C2CCCC2)C1` (stereo not drawn) the value was 5.03%; for `CC1(C)CC(=O)C2=C(C1)OC(N)=C(C#N)C2CCc1ccccc1` (stereo not drawn), 3.79%; for `COc1ccc(NC(=O)C(NC(=O)OC(C)(C)C)C(C)OCc2ccccc2)cc1` (stereo not drawn), 10%.
As to `O=C(COC(=O)CCCSc1nc2ccccc2[nH]1)NC(=O)NC1CCCC1`, the “hERG current change (%, negative = inhibition) at 1uM” value is 5.77%.
On to `Cc1ccccc1CN(c1ccc(C(=O)Nc2ccccc2C(=O)N2CCCC2)cc1)S(C)(=O)=O`, for which the “hERG current change (%, negative = inhibition) at 1uM” value turned out to be 9.37%.
For the molecule `Nn1c(=O)[nH]c2ccccc2c1=O`, the “hERG current change (%, negative = inhibition) at 1uM” value stood at 21.7%.
Take `N#Cc1ccc(N2CCN(c3ccc(F)cc3)CC2)cc1`: the “hERG current change (%, negative = inhibition) at 1uM” value is 1.73%.
With `COc1ccccc1OC(C)C(=O)Nc1ccccc1C(=O)NCc1cccnc1` (stereo not drawn), the “hERG current change (%, negative = inhibition) at 1uM” value was determined as 7.69%.
Take `CNC(=O)c1ccc(CN(C)CC(=O)Nc2ccccc2C(=O)NC2CC2)cc1`: the “hERG current change (%, negative = inhibition) at 1uM” value is reported as 6.09%.
In the case of `N#Cc1ccc(C(=O)Nc2cccc3ncccc23)c(F)c1`, the “hERG current change (%, negative = inhibition) at 1uM” value is -6.72%.
In the case of `Cc1nc2cc(NC(=O)Nc3cccc4ccccc34)ccc2n1C`, the “hERG current change (%, negative = inhibition) at 1uM” value amounted to 10%.
As for `CCCc1cc(=O)[nH]c(SCC(=O)Nc2ccc(OCc3ccccc3)cc2)n1`, the “hERG current change (%, negative = inhibition) at 1uM” value amounted to 7.01%.
Take `CS(=O)(=O)N(Cc1ccc(C(=O)NN=C2CCCCCC2)cc1)c1ccccc1`: the “hERG current change (%, negative = inhibition) at 1uM” value is 3.5%.
For `CC(=O)C1=C(O)C(=O)N(c2nccs2)C1c1ccc(F)cc1` (stereo not drawn) the value was 11.1%.
Regarding `COc1ccc2nc(C)cc(N3CCN(c4ccccc4)CC3)c2c1`, the “hERG current change (%, negative = inhibition) at 1uM” value was -29%.
Turning to `O=C(Nc1ccccc1F)N(Cc1ccc(F)cc1)Cc1nc2ccccc2c(=O)[nH]1`, the “hERG current change (%, negative = inhibition) at 1uM” value is on record as 12.7%.
For `O=C(Nc1ccc(N2CCOCC2)cc1)c1cc(-c2ccncc2)nc2ccccc12` the value was -21.8%; for `C=C(C)CN(CC)c1ccc(N2C(=O)CCCC2=O)cc1[N+](=O)[O-]`, 18.9%; for `Cc1cc(-c2ccc(NC(=O)[C@@H]3CCCC[C@@H]3C(=O)O)c(C)c2)ccc1NC(=O)[C@@H]1CCCC[C@@H]1C(=O)O`, 9.26%.
Take `CCOC(=O)Cn1c2ccccc2c2nc3ccccc3nc21`: the “hERG current change (%, negative = inhibition) at 1uM” value was found to be 6.91%.
In the case of `O=C(CSCc1ccc(F)cc1)NCc1cccs1`, the “hERG current change (%, negative = inhibition) at 1uM” value is on record as 4.9%.
With `O=P(CCl)(Nc1ccccc1)C(Cl)(Cl)Cl` (stereo not drawn), the “hERG current change (%, negative = inhibition) at 1uM” value turned out to be 10.7%.

Source of the values: paper PMC4336329 (PLoS ONE, 2015).
